Data: PubChem BioAssay AID463173 (ICCB-Longwood Screening Facility, Harvard Medical School, 2010)
The campaign covered roughly 52,000 compounds. About 1,700 (3.3%) were called active. Cut-off read from the data, not from the text of the source: active = survival mostly below about 52% (no sharp cut-off); inactive = mostly above about 56%. The list shows a part of the results.

These compounds were tested on Wild type (assay: growth inhibition of S. aureus wild type versus tarO mutant, primary screen, teichoic acid synthesis inhibitors, RN4220, OD600 (AID 463173)). Settings: S. aureus RN4220 wild type/DeltatarO growth, OD600, 18 h, active compounds read low, screened at 18.75 µg/mL (by protocol).

**Q.** For `COc1cc(C(=O)NCC(c2ccco2)S(=O)(=O)c2cccs2)cc(OC)c1OC` (stereo not given), which survival is on record?
**A.** inactive: 63%

**Q.** How did the survival turn out when `CCc1cccc(C)c1NC(=O)c1ccc2c(c1)CCN2S(=O)(=O)c1ccc(Cl)cc1` was run?
**A.** inactive: 85%

**Q.** How did the survival turn out when `CCS(=O)(=O)N1CCc2cc(C(=O)Nc3ccc(Br)cc3F)ccc21` was run?
**A.** inactive: 109%

**Q.** `Cc1ccc(-n2c(=O)c3c(c4cc(C)ccc4n3C)n(CC(=O)Nc3ccc(F)cc3)c2=O)cc1` was tested. Which survival did it give?
**A.** inactive: 113%

**Q.** How did the survival turn out when `CC(=O)c1ccc(N2CCN(C(=O)c3cn(C)c(=O)c4c3c3ccccc3n4C)CC2)cc1` was run?
**A.** inactive: 95%

**Q.** `CCCCC(=O)Nc1nnc(S(=O)(=O)N(C)Cc2ccc(Cl)cc2)s1` was tested. Which survival did it give?
**A.** inactive: 81%

**Q.** How did the survival turn out when `COc1ccc(N(Cc2cccs2)C(=O)c2ccco2)cc1` was run?
**A.** inactive: 82%

**Q.** Which survival does the source give for `COCCCNc1nc2c(c(=O)n(Cc3ccc(F)cc3)c(=O)n2C)n1C` here?
**A.** inactive: 130%

**Q.** Which survival does the source give for `Cc1cc(C)cc(NC(=O)CCc2c(C)nc3nc(CNC(=O)c4cccc(F)c4)nn3c2C)c1` here?
**A.** inactive: 92%

**Q.** Which survival does the source give for `O=C(NCC(c1ccco1)S(=O)(=O)c1cccs1)c1ccccc1` (stereo not given) here?
**A.** inactive: 45%

**Q.** With `COc1ccc(N2CCN(S(=O)(=O)c3ccc(CC(C)C)cc3)CC2)cc1` as the compound, how does the survival read?
**A.** inactive: 83%

**Q.** How did the survival turn out when `COC(=O)c1cc(NC(=O)c2cc3c(-c4ccccc4F)nn(C)c3s2)cc(C(=O)OC)c1` was run?
**A.** inactive: 81%

**Q.** How did the survival turn out when `COc1ccc(OC)c(S(=O)(=O)NCC(c2ccc(N(C)C)cc2)N2CCOCC2)c1` (stereo not given) was run?
**A.** inactive: 59%

**Q.** For `CCOC(=O)c1cc2c(=O)n3ccccc3nc2n(Cc2ccco2)c1=NC(=O)c1ccccc1Br`, which survival is on record?
**A.** inactive: 73%

**Q.** How did the survival turn out when `Cc1ccc(-n2c(C)cc(/C=N/NC(=O)CC3(C)OCCO3)c2C)cc1` was run?
**A.** inactive: 111%

**Q.** For `COC(=O)c1cc2oc3ccccc3c2n1Cc1ccc(C)cc1`, which survival is on record?
**A.** inactive: 82%

**Q.** How did the survival turn out when `Cc1c(Cl)cccc1Nc1nn2c(=O)c3ccccc3nc2s1` was run?
**A.** inactive: 73%

**Q.** How did the survival turn out when `Cc1cccc(N2CCN(S(=O)(=O)c3ccc(-c4cnc(C5CC5)o4)cc3)CC2)c1C` was run?
**A.** inactive: 68%

**Q.** For `Cc1ccc(Cn2c(SCC(=O)NCc3ccccc3)nc3ccsc3c2=O)cc1`, which survival is on record?
**A.** inactive: 76%

**Q.** `Cc1ccccc1-c1noc(-c2ccc(NCC3CCCO3)c([N+](=O)[O-])c2)n1` (stereo not given) was tested. Which survival did it give?
**A.** inactive: 78%

**Q.** For `COc1ccccc1CNC(=O)CC(c1ccc(F)cc1)N1Cc2ccccc2C1=O` (stereo not given), which survival is on record?
**A.** inactive: 73%

**Q.** Which survival does the source give for `CCOc1ccc(NC(=O)Cn2c(=O)n(CCCC(=O)NCCc3ccc(Cl)cc3)c(=O)c3ccccc32)cc1` here?
**A.** inactive: 136%

**Q.** `Cc1oc(-c2ccccc2F)nc1CS(=O)(=O)CC(=O)N1CCN(c2ccccc2)CC1` was tested. Which survival did it give?
**A.** inactive: 77%

**Q.** How did the survival turn out when `COc1ccc(-c2[nH]c(-c3ccc(O)cc3)nc2-c2ccccc2)cc1` was run?
**A.** active: 0%

**Q.** Which survival does the source give for `Cc1ccc([N+](=O)[O-])cc1NC(=O)CN(c1ccccc1)S(=O)(=O)N(C)C` here?
**A.** inactive: 69%

**Q.** Which survival does the source give for `CCOC(=O)c1cccc(NC(=O)C(C)n2nc(C)c3c(C)n(-c4ccccc4)nc3c2=O)c1` (stereo not given) here?
**A.** inactive: 95%

**Q.** With `Cc1noc(-c2ccc(NCc3ccccc3)c([N+](=O)[O-])c2)n1` as the compound, how does the survival read?
**A.** inactive: 79%

**Q.** `COc1cccc(CNS(=O)(=O)c2cc3c(cc2C)n(C)c(=O)c(=O)n3C)c1` was tested. Which survival did it give?
**A.** inactive: 132%

**Q.** With `COc1ccc2nc(NC(=O)c3cc(=O)c4ccccc4o3)sc2c1` as the compound, how does the survival read?
**A.** inactive: 88%

**Q.** For `COc1ccc(NC(=O)Cn2c(=O)n(CCc3ccccc3)c(=O)c3ccccc32)cc1`, which survival is on record?
**A.** inactive: 103%

**Q.** With `Cc1ccccc1OCC(=O)Nc1cc(-c2cccc(Br)c2)nn1-c1ccccc1` as the compound, how does the survival read?
**A.** inactive: 85%

**Q.** With `O=C(NCc1nc2cccnc2n1Cc1ccc(F)cc1)c1ccccc1C(F)(F)F` as the compound, how does the survival read?
**A.** inactive: 73%

**Q.** `CCCCNC(=O)c1c(C)oc2ncn(CC(C)C)c(=O)c12` was tested. Which survival did it give?
**A.** active: 1%

**Q.** How did the survival turn out when `CCOc1ccc(NC(=O)Cn2nc(-c3ccncc3)ccc2=O)cc1` was run?
**A.** inactive: 71%

**Q.** How did the survival turn out when `O=C(c1cccc(Cl)c1)N1CCN(CCc2ccccn2)CC1` was run?
**A.** inactive: 89%

**Q.** For `COc1ccc(C(=O)N(Cc2ccco2)Cc2ccco2)cc1`, which survival is on record?
**A.** inactive: 83%

**Q.** How did the survival turn out when `Nc1c(-c2nc(-c3ccncc3)no2)nnn1CC(=O)Nc1ccccc1` was run?
**A.** inactive: 87%

**Q.** Which survival does the source give for `COc1ccccc1CNCCSc1nnnn1C` here?
**A.** inactive: 70%

**Q.** With `CCC(c1nnnn1Cc1ccco1)N(Cc1cccs1)Cc1cc2c(C)cc(C)cc2n2nnnc12` (stereo not given) as the compound, how does the survival read?
**A.** inactive: 105%

**Q.** `Cc1ccccc1CN1C(=O)c2ccccc2Sc2ccc(C(=O)NCc3cccs3)cc21` was tested. Which survival did it give?
**A.** inactive: 74%

**Q.** Which survival does the source give for `CN1CCC(OC(=O)COc2ccc(F)cc2)CC1` here?
**A.** inactive: 108%

**Q.** With `Cc1noc(/C=C/c2ccccc2F)c1S(=O)(=O)N1CCC(C(=O)N(C)Cc2ccco2)CC1` as the compound, how does the survival read?
**A.** inactive: 67%

**Q.** How did the survival turn out when `COC(=O)c1c(N)n(-c2cc(Cl)cc(Cl)c2)c2nc3ccccc3nc12` was run?
**A.** inactive: 59%

**Q.** Which survival does the source give for `CCC(=O)N1CCc2cc(Br)cc(S(=O)(=O)N3CCCC(C(=O)NCc4ccccc4)C3)c21` (stereo not given) here?
**A.** inactive: 94%

**Q.** How did the survival turn out when `COc1ccccc1N1CCN(S(=O)(=O)c2c(C)sc3ncn(CC(=O)Nc4ccccc4F)c(=O)c23)CC1` was run?
**A.** inactive: 78%
